The other results are listed elsewhere or left out. At the low end of the ranking the order means little.

For the test, the target named is SIX1 homeodomain (reference allele) (UniProt Q15475). The test can be described thus: universal protein binding microarray. Conditions: Universal all-10-mer PBM (8x60K, AMADID 030236), 300 nM GST-tagged protein, Alexa Fluor 488 anti-GST; buffer, salt, pH and temperature not stated; high values mean tight binding; most listed sequences are background and not binding sites; double strand, one strand shown.
AGCAAGAT: the binding signal is 0.0758 E-score.
The result for AATTCGCC reads -0.156 E-score; that for ATCCGACA, 0.35 E-score; that for AAATTTTA, -0.127 E-score.
The result for ACTCGCGA reads 0.0221 E-score.
The same measure for AGGTATTA: 0.385 E-score.
For CGCGCGAC, the binding signal is -0.0865 E-score.
For AAAGAGAT, the binding signal was 0.0667 E-score.
The same measure for CGTGAGTC: -0.176 E-score; for ATCATGGG: 0.17 E-score.
The result for TACCCCAA reads 0.174 E-score.
The same measure for CCCCGGAG: 0.128 E-score; for CTTGATGA: 0.0224 E-score; for AGAGTATC: 0.465 E-score.
On to ATCCTAGG, for which the binding signal was 0.238 E-score.
Consider ATCTCGTG, for which the binding signal is 0.209 E-score.
On to ATCCAGCC, for which the binding signal came out at 0.182 E-score.
The result for AACCCCCT reads 0.107 E-score; that for AGCATCAC, -0.0036 E-score.
The same measure for ACCCGCAG: 0.0626 E-score; for GAACCACC: -0.0411 E-score.
For AATGGAAT, the binding signal is -0.125 E-score.
With TCTCGGAA, the binding signal is -0.00352 E-score.
For GACCCGGC, the binding signal is 0.183 E-score.
On to GTAAGCTA, for which the binding signal turned out to be 0.129 E-score.
Turning to CTCATATA, the binding signal stood at 0.253 E-score.
The same measure for GATCAGGC: 0.289 E-score; for AATGCGGC: -0.193 E-score; for AGCGGAAA: -0.326 E-score.
The same measure for CGACTGTC: -0.178 E-score; for AAGCCGAA: 0.0384 E-score.
For the sequence AGTGCCAA, the binding signal is -0.244 E-score.
Take CCCCGAAC: the binding signal is -0.0242 E-score.
In the case of GTCTCCAA, the binding signal came to 0.0309 E-score.
CTTCGCAA: the binding signal is -0.218 E-score.
As to AGCGATAG, the binding signal turned out to be 0.209 E-score.
Consider AAACCCAA, for which the binding signal was -0.0527 E-score.
In the case of GAAGGCCC, the binding signal is -0.29 E-score.
For ATGGCCGC, the binding signal is -0.345 E-score.
Regarding TCCGCGGA, the binding signal is 0.0925 E-score.
Regarding AAATTGAT, the binding signal came to 0.00287 E-score.
The result for GCTGTGCC reads -0.0618 E-score.
Turning to AGTGTGGA, the binding signal was 0.0119 E-score.
Turning to CTCCAGCC, the binding signal is -0.158 E-score.
The result for CGTAACGA reads -0.141 E-score; that for CCCCCTAC, 0.0383 E-score; that for TCTTCAAA, -0.243 E-score.
Consider AGCCGTAG, for which the binding signal was 0.133 E-score.
For CGTTCGCA, the binding signal was -0.127 E-score.
The same measure for GGTAATTA: -0.0538 E-score; for ACGAAAGC: -0.142 E-score.
In the case of TCCATACA, the binding signal came out at 0.166 E-score.
The result for AACTGATC reads 0.286 E-score; that for ACTCTTAG, -0.104 E-score.
Consider CGCCTCAG, for which the binding signal is 0.017 E-score.
Take GCGTTCAA: the binding signal was -0.105 E-score.
As to CTGCGCCC, the binding signal is -0.264 E-score.
The same measure for CGAGGACA: 0.105 E-score; for CATCCTAG: 0.0586 E-score; for ATAGTGAC: -0.0934 E-score.
The result for TAATCGTA reads 0.0626 E-score; that for CCATACCA, 0.13 E-score.
As to AACACATC, the binding signal is -0.186 E-score.
As to GGGAATCA, the binding signal is -0.0594 E-score.
CAGTGGGG: the binding signal is -0.0568 E-score.
CCTTTGCA: the binding signal was -0.181 E-score.
As for ACGCAAGA, the binding signal was found to be 0.0856 E-score.
The result for CTAATTCC reads -0.0614 E-score; that for GTCGGAGA, 0.0326 E-score; that for CCTGGTGC, -0.0854 E-score.
As to AAGGTGGT, the binding signal is -0.0124 E-score.
Consider CAGCGAAC, for which the binding signal is -0.136 E-score.
With AAACGGGA, the binding signal was 0.0602 E-score.
Regarding CTAGTCCA, the binding signal was -0.303 E-score.
On to TAGTCACA, for which the binding signal is -0.115 E-score.
Consider CACCGCCA, for which the binding signal was determined as 0.0939 E-score.
With AATTGGCT, the binding signal is -0.0937 E-score.
The result for AGGCACCG reads -0.147 E-score.
CGGAGAAG: the binding signal was determined as 0.0186 E-score.
The same measure for CCAAGCGA: -0.0413 E-score.
On to ACTATGAG, for which the binding signal turned out to be 0.092 E-score.
Turning to GATACCTA, the binding signal was determined as 0.472 E-score.
Consider GGGCTAAA, for which the binding signal was determined as 0.0101 E-score.
On to AAATCTGA, for which the binding signal is 0.106 E-score.
CGCCGGCA: the binding signal is -0.0464 E-score.
In the case of AAAAAACT, the binding signal is -0.212 E-score.
As to TATTTCCA, the binding signal is 0.0541 E-score.
For GAGCTAGC, the binding signal is -0.0927 E-score.
On to AGGGAGCA, for which the binding signal is -0.0806 E-score.
Consider CGAGCTTC, for which the binding signal was -0.167 E-score.
Regarding AACGCCGA, the binding signal is -0.0112 E-score.
As for AGAGGGCA, the binding signal was -0.179 E-score.
On to GGTCTGGA, for which the binding signal worked out at 0.00504 E-score.
Consider GCTCATCA, for which the binding signal was determined as 0.0461 E-score.
Consider TCGCTAGA, for which the binding signal was found to be 0.0614 E-score.
The same measure for AACGCTGG: -0.216 E-score.
The result for CGTCGAAA reads -0.135 E-score.
Regarding AGCGGAGC, the binding signal was -0.0752 E-score.
CGGCGACA: the binding signal was determined as 0.0312 E-score.
For AGGCACTA, the binding signal is -0.164 E-score.
In the case of CAGAATCG, the binding signal stood at 0.00426 E-score.
CTATTCAC: the binding signal was -0.028 E-score.
CTTGGCGC: the binding signal was -0.298 E-score.
The same measure for GTGGGGTA: 0.283 E-score; for GAATTCTC: -0.095 E-score; for ATATCGAT: 0.411 E-score.
As for CTTCGTGC, the binding signal is -0.183 E-score.
The result for AGTTGGCG reads -0.0632 E-score; that for CAAGTCGA, -0.0698 E-score.
Consider CCAGATCG, for which the binding signal turned out to be 0.292 E-score.
In the case of CTGGTGTA, the binding signal was determined as 0.313 E-score.
As for GCGCCCGA, the binding signal stood at 0.03 E-score.
On to GTTTAGCA, for which the binding signal is -0.0213 E-score.
The result for ACAAGCAC reads -0.171 E-score.
For the sequence AGCTTGAG, the binding signal was -0.0973 E-score.
Consider CTTAGGCA, for which the binding signal was -0.244 E-score.
The same measure for CATATTAA: 0.175 E-score; for AGTACACG: -0.0344 E-score; for CATTTGTC: -0.205 E-score.
In the case of AAACGGAA, the binding signal was -0.199 E-score.
Take CTCAGCAA: the binding signal was -0.0745 E-score.
For the sequence GGGACTGA, the binding signal was -0.089 E-score.
As to AAACGACT, the binding signal was -0.263 E-score.
Take AGATCCTA: the binding signal turned out to be 0.215 E-score.
The same measure for TATTTGGA: -0.137 E-score; for ATGCATGG: 0.0583 E-score.
On to GACCCCCA, for which the binding signal was 0.0315 E-score.
Consider ACGGGGAG, for which the binding signal came to 0.061 E-score.
The result for GCATAGGA reads -0.0304 E-score.
The result for GAGCCCGA reads 0.106 E-score; that for CACAGATC, 0.277 E-score; that for AGTATGCG, 0.124 E-score.
Turning to GGACCCCC, the binding signal is 0.00338 E-score.
Turning to AAATTCCT, the binding signal is -0.279 E-score.
Turning to GGGATCCC, the binding signal came out at 0.415 E-score.
For the sequence CAGGATTC, the binding signal is -0.0938 E-score.
Turning to CACAACCC, the binding signal is -0.181 E-score.
On to AGTTTGCC, for which the binding signal was -0.176 E-score.
Turning to AACGAGTA, the binding signal is -0.0302 E-score.
With AGGGCGCG, the binding signal was -0.243 E-score.
The same measure for ACAGTCAA: -0.281 E-score; for ATAGCCAT: 0.218 E-score.
Consider ACGTGTAT, for which the binding signal was determined as 0.256 E-score.
As to CATTCCAC, the binding signal is -0.104 E-score.
Regarding AGAGGGTG, the binding signal worked out at 0.0789 E-score.
On to ACATAAAC, for which the binding signal was 0.092 E-score.
For the sequence ACCGGCTC, the binding signal was found to be 0.143 E-score.
As for CTCTTAGC, the binding signal is -0.0947 E-score.
In the case of GATCCACC, the binding signal was found to be 0.394 E-score.
Take AATGCTGA: the binding signal is 0.0327 E-score.
Turning to CGTATCAC, the binding signal is 0.484 E-score.
Take AACAGAGA: the binding signal is 0.0474 E-score.
Regarding GCAAGGCA, the binding signal is -0.185 E-score.
Take AGACCGAT: the binding signal was 0.179 E-score.
The same measure for AACCCGAA: -0.0401 E-score.
Regarding CATCGTTC, the binding signal was -0.147 E-score.
Turning to ACTAGCCG, the binding signal is 0.183 E-score.
As to ACGGTTAG, the binding signal is -0.214 E-score.
With CTGACTGC, the binding signal is -0.199 E-score.
In the case of ACTGCGCT, the binding signal was -0.119 E-score.
On to CACGACGC, for which the binding signal is -0.218 E-score.
On to AGCCGGCC, for which the binding signal was -0.142 E-score.
For the sequence GTAAGGAC, the binding signal is -0.271 E-score.
For the sequence AGAACCTG, the binding signal worked out at 0.0605 E-score.
In the case of CGGCGTGA, the binding signal is -0.0538 E-score.
Regarding GGTTAGAA, the binding signal was found to be 0.153 E-score.
In the case of AGCACCGA, the binding signal came out at 0.074 E-score.
Take CAAGCTAA: the binding signal was -0.179 E-score.
The result for TCGGTTAA reads -0.0168 E-score; that for AAATGTCA, -0.273 E-score.
The same measure for CAGAGAGA: 0.00025 E-score; for CTATACCA: 0.245 E-score.

The values above are taken from publication PMC10668032.
